SMILES strings stand for the structures. Among all 310,000 compounds or so, about 2,200 (0.71%) showed an effect of 50% or more. Effects have a minus sign here. The list shows a part of the results.

human ether-à-go-go-related gene (hERG) potassium channel, sequence (Q12809 whole entry, looked up): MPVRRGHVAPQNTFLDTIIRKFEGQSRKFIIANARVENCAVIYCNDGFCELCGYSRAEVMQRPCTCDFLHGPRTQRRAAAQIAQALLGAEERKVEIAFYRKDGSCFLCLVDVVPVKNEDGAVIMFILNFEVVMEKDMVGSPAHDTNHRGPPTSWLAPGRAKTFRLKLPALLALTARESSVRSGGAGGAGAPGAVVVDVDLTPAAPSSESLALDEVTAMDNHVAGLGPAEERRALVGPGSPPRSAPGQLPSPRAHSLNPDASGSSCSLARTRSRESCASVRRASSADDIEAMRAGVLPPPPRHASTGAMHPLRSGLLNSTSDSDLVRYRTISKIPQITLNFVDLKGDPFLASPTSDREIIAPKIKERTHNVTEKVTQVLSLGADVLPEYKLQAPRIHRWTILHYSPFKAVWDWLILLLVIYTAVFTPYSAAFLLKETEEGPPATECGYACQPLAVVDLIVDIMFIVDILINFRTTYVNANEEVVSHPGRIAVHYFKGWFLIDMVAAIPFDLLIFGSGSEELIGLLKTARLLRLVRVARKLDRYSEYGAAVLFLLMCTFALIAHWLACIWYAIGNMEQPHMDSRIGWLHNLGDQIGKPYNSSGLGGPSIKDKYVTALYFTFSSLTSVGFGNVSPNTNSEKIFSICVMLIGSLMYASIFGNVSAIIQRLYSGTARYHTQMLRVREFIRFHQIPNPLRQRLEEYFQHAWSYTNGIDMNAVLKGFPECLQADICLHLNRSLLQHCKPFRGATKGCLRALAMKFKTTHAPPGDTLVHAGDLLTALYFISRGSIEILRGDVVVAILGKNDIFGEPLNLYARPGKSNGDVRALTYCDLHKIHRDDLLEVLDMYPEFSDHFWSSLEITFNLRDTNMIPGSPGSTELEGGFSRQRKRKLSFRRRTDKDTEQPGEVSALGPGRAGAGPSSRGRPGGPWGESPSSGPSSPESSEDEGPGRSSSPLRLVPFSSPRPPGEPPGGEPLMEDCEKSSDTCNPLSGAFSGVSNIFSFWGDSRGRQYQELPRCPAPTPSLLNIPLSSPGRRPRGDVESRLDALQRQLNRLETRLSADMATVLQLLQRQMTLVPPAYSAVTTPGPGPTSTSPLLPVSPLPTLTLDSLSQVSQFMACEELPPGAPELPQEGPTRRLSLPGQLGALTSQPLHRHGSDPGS

The assay addresses human ether-à-go-go-related gene (hERG) potassium channel (human, UniProt Q12809). The assay can be described thus: primary screen, population patch clamp on CHO cells stably expressing hERG.
Regarding `Cc1ccc(CSCC(=O)NCc2ccc(F)cc2)cc1`, the “hERG current change (%, negative = inhibition) at 1uM” value amounted to 9.12%.
In the case of `Cc1cccc(/C=N/NC(=O)CNc2cccc3ccccc23)n1`, the “hERG current change (%, negative = inhibition) at 1uM” value turned out to be 11.6%.
Under `CC(=O)Cc1nsc(Nc2ccc3c(c2)OCCO3)n1` stands 11.3%; under `NC(=O)CCn1nc(-c2ccccc2)c2ccccc2c1=O`, 10.9%.
Under `Cc1ccc(C(=O)C(C)OC(=O)CCN2C(=O)C3C4C=CC(C5CC45)C3C2=O)cc1` (stereo not drawn) stands 1.22%; under `COc1cc(C(=O)NCc2ccc(-c3nc4ccccc4o3)cc2)cc(OC)c1OC`, 17.9%.
The figure for `O=C(CSCc1c(F)cccc1Cl)NNC(=S)NC1CCCCC1` is 18.4%.
For `O=C(CSCc1nc2scc(-c3cccs3)c2c(=O)[nH]1)Nc1ccccn1`, the “hERG current change (%, negative = inhibition) at 1uM” value is on record as 13.1%.
The figure for `CCOc1ccc(C(=O)c2cnc3ccccc3c2N2CCN(CC)CC2)cc1` is -43.9%; for `CCc1ccccc1NC(=O)CNC(=O)c1ccccc1OCc1c(C)noc1C` it is -0.713%.
`CCCc1cc(=O)oc2cc(C)cc(OCC(=O)NCc3cccnc3)c12`: the “hERG current change (%, negative = inhibition) at 1uM” value is -6.08%.
The figure for `CCOc1cccc2cc(C(=O)N3CCc4ccccc4C3)c(=O)oc12` is -7.46%.
The figure for `COCCN(C(=O)COC(=O)CCc1ccccc1OC)c1c(N)n(Cc2ccccc2)c(=O)[nH]c1=O` is 7.64%; for `Nc1ccccc1NC1=CC(=O)CC(c2ccco2)C1` (stereo not drawn) it is 15.3%.
The figure for `O=C(Nc1nnc(S(=O)(=O)N2CCCCCC2)s1)c1ccc(Cl)cc1` is 18.9%; for `CC(=O)c1ccc(NC(=O)CSc2ccc(-c3sc(C)nc3C)nn2)cc1` it is 11.2%.
As to `COc1cc(OC)c(C2=NOC(C(=O)N3CCCc4ccccc43)C2)cc1Cl` (stereo not drawn), the “hERG current change (%, negative = inhibition) at 1uM” value stood at 2.13%.
The figure for `N#Cc1c2c(c(NCCN3CCOCC3)n3c1nc1ccccc13)CCCC2` is -5.19%; for `CCOc1ccc(NC(=O)CN2CCN(C(=O)C3CCCO3)CC2)cc1` (stereo not drawn) it is -14.5%; for `CCN(CC)c1cc(C)c2cc(NC(=O)c3ccc(Br)o3)ccc2n1` it is -11.2%.
The figure for `CC(C)=CCN1CCN(Cc2nc(-c3ccccc3)cs2)CC1CCO` (stereo not drawn) is -3.07%; for `O=C(NCc1ccco1)C1CCN(S(=O)(=O)c2cccc3cccnc23)CC1` it is 4.47%; for `COCCN(C(=O)CC1OC(=O)c2ccccc21)c1c(N)n(Cc2ccccc2)c(=O)[nH]c1=O` (stereo not drawn) it is 8.74%.
Consider `COc1nccnc1NS(=O)(=O)c1ccc(N=Cc2c(C)[nH]n(-c3ccc(Cl)cc3)c2=O)cc1`, for which the “hERG current change (%, negative = inhibition) at 1uM” value was 18.2%.
Turning to `COc1ccc(CSCC(=O)N/N=C/c2ccc(OCC(=O)NCc3ccco3)cc2)cc1`, the “hERG current change (%, negative = inhibition) at 1uM” value is recorded as 9.37%.
Turning to `Cc1ccc(C)c(N2C(=N)S/C(=C\c3ccc(-c4ccccc4C(=O)O)o3)C2=O)c1`, the “hERG current change (%, negative = inhibition) at 1uM” value stood at 10.7%.
Under `CSc1ccc(CNCCCSc2ncccn2)cc1.Cl` stands -2.83%; under `O=C(N/C=C/n1cnc2cc(C(F)(F)F)ccc21)c1ccccc1`, 3.24%.
The figure for `CCOC(=O)N1CCC(N(CCN(C)C)C(=S)Nc2cc(C)cc(C)c2)CC1` is 4.08%.
Under `COc1ccc(Cl)cc1S(=O)(=O)NCc1cccs1` stands 2.75%; under `COc1ccccc1-n1cnnc1SC1CCOC1=O` (stereo not drawn), 13%; under `CCOc1ccc(CN(C(=O)c2ccccn2)c2ccc(OC)c(Cl)c2)cc1`, 14.6%.
For the molecule `COc1ccc(NC(=O)COC(=O)C2=COCCO2)cc1OC`, the “hERG current change (%, negative = inhibition) at 1uM” value is recorded as 2.99%.
Under `O=C(O)CCCCCCCCc1cn(Cc2ccc(C(=O)c3ccccc3)cc2)nn1` stands 17.7%; under `COC(=O)N1CN(C(=O)OC)CN(C(=O)OC)C1`, 9.46%; under `COc1cccc2sc(=NC(=O)CS(=O)(=O)c3ccc(F)cc3)n(C)c12`, 8.13%.
Under `CCC(CC)N1CCN(C(=O)Cc2ccccc2)CC1.O=C(O)C(=O)O` stands 8.76%.
The figure for `CCOC(=O)c1[nH]c(=O)[nH]c1CSCCO` is 11.4%.
Regarding `Cc1ccc(C)c(-c2csc(N)c2C(=O)OC(C)C)c1`, the “hERG current change (%, negative = inhibition) at 1uM” value is recorded as 11.1%.
In the case of `CCC(C(=O)Nc1ccc2c(c1)OCCO2)c1ccccc1` (stereo not drawn), the “hERG current change (%, negative = inhibition) at 1uM” value is 18.8%.
The figure for `COc1cc(CC(=O)OCC(=O)Nc2ncc(Cl)cc2Cl)cc(OC)c1OC` is 11%; for `COc1ccc(NC(=O)C23CCC(C2)C(C)(C)C3=O)cc1` (stereo not drawn) it is 9.76%.
The figure for `Cc1ccc[n+](-c2nc([O-])sc2/C=N/Nc2ccc([N+](=O)[O-])cc2)c1` is 10.7%.
The figure for `COc1ccc(-n2nc3c(c2NC(C)=O)CS(=O)(=O)C3)cc1` is 20.9%; for `COc1cccc(/C=C2\SC(=S)N(CCCC(=O)NC3=NCCS3)C2=O)c1` it is 12.6%; for `CCc1ccccc1NC(=O)CN1CCN(CC(=O)Nc2cc(C)ccc2OC)CC1` it is 14.3%.
`COc1cc(/C=C(\C#N)c2nc3ccccc3[nH]2)cc(OC)c1O`: the “hERG current change (%, negative = inhibition) at 1uM” value was 16%.
The figure for `CN1CCN(C(=S)C(=O)NCc2ccccc2)CC1` is 6.25%; for `CC(=O)c1cccc(CN2CCCC(N3CCN(c4ccccc4F)CC3)C2)c1` (stereo not drawn) it is 4.79%; for `O=C(O)c1cccc(NC(=S)NC(=O)c2cccc(OCc3ccccc3)c2)c1` it is 22.6%.
`CN(c1ncc(C(F)(F)F)cc1Cl)n1cc(C(=O)O)c2ccccc2c1=O`: the “hERG current change (%, negative = inhibition) at 1uM” value is 13.5%.
Take `CC(=O)Nc1ccc(NC(=O)C(C)OC(=O)CCCN=C2NS(=O)(=O)c3ccccc32)cc1` (stereo not drawn): the “hERG current change (%, negative = inhibition) at 1uM” value was 8.26%.
The figure for `COc1ccc(N(CN2C(=O)C3CC=CCC3C2=O)C(=O)c2ccco2)cc1` (stereo not drawn) is 6.46%.
The figure for `CCOC(=O)CSC1=N/C(=C\c2ccc(OC)c(OC)c2)C(=O)N1C` is -48.2%; for `COc1cccc(/C=C2\SC(=S)N(NS(=O)(=O)c3ccccc3)C2=O)c1OC` it is -0.0447%; for `Cc1cc(NC(=O)CCC(=O)N(CC(C)C)C(C(=O)NC(C)(C)C)c2ccccc2Cl)no1` (stereo not drawn) it is 13.4%.
For the molecule `O=C(NCCCN1CCOCC1)C(=O)NCC1OCCN1S(=O)(=O)c1ccc(Br)cc1` (stereo not drawn), the “hERG current change (%, negative = inhibition) at 1uM” value stood at 8.44%.
The figure for `CCOC(=O)C1CCN(C(=O)C(=O)c2cn(CC(=O)N3CCCCCC3)c3ccccc23)CC1` is 9.27%; for `CN(C)/C=C\C(=C/C(=O)C(F)(F)F)Nc1ccccc1Oc1ccccc1` it is 0.691%; for `COc1ccccc1CCC(=O)NNC(=O)c1ccncc1` it is 16.6%.
The figure for `CC(C)N1C(=O)CC(Nc2ccc(N3CCOCC3)cc2)C1=O` (stereo not drawn) is -0.972%.
As to `O=C(NCCCc1ccccc1)c1ccc([N+](=O)[O-])cc1Cl`, the “hERG current change (%, negative = inhibition) at 1uM” value is on record as -10.6%.
Under `COCCSc1ncnc2c1oc1nc3c(cc12)COC(C)(C)C3` stands 9.02%; under `CC(C)(C)OC(=O)N1CCN(C(=O)Nc2ccc3c(c2)OCCO3)CC1`, 8.68%; under `COc1cccc(NC(=O)Cn2c(-c3cncs3)nc3ccccc32)c1`, 0.466%.
The figure for `CC(C)(CO)CNC(=O)CCc1nnc(CCCc2ccccc2)o1` is 6.17%; for `CSC1=NCCN1S(=O)(=O)c1ccccc1` it is 3.71%.
The figure for `O=S(=O)(Oc1ccccc1N1CCCCC1)c1ccccc1` is 6.19%; for `CCCCn1c(N)c(N(CC)C(=O)c2cnc(C)cn2)c(=O)[nH]c1=O` it is 9.4%; for `CC(O)Cc1cn(CC(=O)N2CCN(C(=O)OC(C)(C)C)CC2)nn1` (stereo not drawn) it is 17.6%.
With `CC(=O)NC(c1ccccc1)c1c(O)ccc2ccccc12` (stereo not drawn), the “hERG current change (%, negative = inhibition) at 1uM” value was 7.34%.
Under `COc1ccc(-c2cc(C(F)(F)F)n3nc(C(=O)O)cc3n2)cc1OC` stands 0.647%; under `O=C(CCC1CCCC1)N1CCN(C(=O)COc2ccccc2)CC1`, -8.68%; under `COc1ccc(NC2CCCN(C(=O)CSc3ccccn3)C2)cc1OC` (stereo not drawn), 10.3%.
Regarding `COC(=O)c1ccccc1NC(=S)NC(=O)CC(C)C`, the “hERG current change (%, negative = inhibition) at 1uM” value was found to be 3.33%.
Under `CCOCC(=O)Nc1cc(C(=O)Nc2ccc(F)cc2)ccc1Cl` stands 29.4%; under `O=C(Nc1cccs1)Nc1ccccc1Cl`, 6.1%; under `Cn1c(N)c(C(=O)CSc2nc(N)cc(=O)[nH]2)c(=O)n(C)c1=O`, 8.36%.
`CCN1C(=O)c2ccc(-c3nc4ccccc4c(=O)o3)cc2C1=O`: the “hERG current change (%, negative = inhibition) at 1uM” value is given as 5.78%.
Under `NC(=O)C1Cc2ccccc2CN1S(=O)(=O)c1ccc(Cl)s1` (stereo not drawn) stands 8.63%; under `O=C(Nc1ccccc1F)c1oc2ccccc2c1NC(=O)C1CC1`, 12.4%.
The figure for `C=CCn1c(=O)c2c(nc3n2CCCN3Cc2ccccc2)n(C)c1=O` is 8.28%.
The figure for `CC(=O)Nc1ccc2c(c1)N(C(C)=O)c1ccccc1CC2` is 17.6%; for `Cc1ccc(C)c(NC(=O)C2CC(=O)N(C(C)C)C2)c1` (stereo not drawn) it is 2.5%; for `CCOC(=O)C1=C(CSc2nc(CC)c(C)cc2C#N)OC(N)=C(C#N)C1c1ccc(OC)cc1` (stereo not drawn) it is 7.38%.
Regarding `O=C(NC1CCCCC1)c1ccc(N2CCCC2=O)cc1`, the “hERG current change (%, negative = inhibition) at 1uM” value came to 14.9%.
The figure for `O=C(Nc1ccc(Br)cc1F)C1CCCO1` (stereo not drawn) is 1.99%; for `CCCCP(=O)(O)c1ccccc1` it is 4.72%.
For the molecule `c1ccc2c(c1)OCCOCCOCCOCCOc1ccccc1OCCOCCOCCO2`, the “hERG current change (%, negative = inhibition) at 1uM” value is -11.5%.
As for `CC1=C(C(=O)OC2CCCCC2)C(c2ccccc2Br)NC(=O)N1` (stereo not drawn), the “hERG current change (%, negative = inhibition) at 1uM” value came out at 17.6%.
